Experimental data published in the RNAGym collection of RNA variant scans (doi:10.7554/elife.90254).
Read counts are not given, so values of variants with three or more changes are uncertain.

B1: LINE1-full (parent)
chain: UACGUAGGUGGUUUUCCCCUGAUAGUGCUAAGGGGGCCUGGAAGUUUGGACUGGGCAGAGCUCAACACAGCGUGGCAAAGUGGCUGUGGCUAGACUGCCUCUCUGGAUUCCUCGUCACUCAGCAGGGCAUCUCUGAGAGAAAUGCC

Variants of: B1
Assay: self-cleavage, relative activity (ratio to wild type); higher = more cleavage; in vitro, sequencing; the parent is a self-cleaving ribozyme

| Variant | self-cleavage |
| --- | --- |
| U14A U102C A136G A141G | 0.97 |
| U14C G33A G60A U85G | 0.1 |
| U14C A64G U130A | 0.21 |
| U14C A22G U132C | 1.11 |
| U14C C28U A65G U96A | 0.31 |
| U14C A77U A79G U132C | 1.24 |
| U14A U15C A67G G89A U112A A117U | 0.11 |
| U14A U87A A94G | 0.04 |
| U14C A24U U87A | 0.14 |
| U14C U23C G32A U132C A136U | 0.45 |
| U14A A30U G32A | 0.97 |
| U14C A57C A78U U100A U102C U143C | 0 |
| U14C C71A U119A | 0.17 |
| U13C U112C A142G | 1.99 |
| U14C U26A A121U | 1.27 |
| U14C A67G U130C A141G | 0 |
| U14C A79G U87C U100A | 0.71 |
| U14C C63A G82A A94G A142G | 0.03 |
| U14C A79G A140C | 0.42 |
| U13G A57U A142G | 0.16 |
| U14A A43G C98U | 0.52 |

| Variant | self-cleavage |
| --- | --- |
| U14C U20C U85G | 0.08 |
| U14C U15C G70A | 0.29 |
| U14C U23C G44A | 1.13 |
| U13C U104G G122C | 1.46 |
| U14A U45C U52A U132C | 1.55 |
| U13C U85C A142G | 0.47 |
| U14A A67U U143A | 0.14 |
| U14A A65G A78G | 0 |
| U14C U23A U45C | 1.89 |
| U14C U26C A94G U100C | 0 |
| U14A A30G U81C U108C C113U | 0.57 |
| U14A G35U U73C U81A A107G U134A A140U | 1.34 |
| U13C U96C U100C U130C | 0.33 |
| U14C U39C A79G U104G U119A | 1.15 |
| U14C A77U A92U | 0.88 |
| U13C U85C A92G U130C | 0 |
| U14C U26C G35A A50U | 0.31 |
| U14C U15C C19U U104A | 1.19 |
| U14A A22G G40A U85A | 0.05 |
| U14C U15C G27A A77C U143A | 0.73 |
| U14A A77G A78C | 0.8 |

| Variant | self-cleavage |
| --- | --- |
| U14C A24U G36A | 1.15 |
| U14C C56U U81C A136G | 0.35 |
| U14C A42G U45A | 0 |
| U14C A64U U104C U109A | 0.56 |
| U14C C17A A30G U46A U87A A121G | 0.22 |
| U14C G36U U52C U62C | 0.25 |
| U14C U20A A69U | 0.11 |
| U13G A24G C56U A59G | 0.09 |
| U14A A31G U47A U109A | 1.31 |
| U14C A65G A79G | 0 |
| U14C A22G U108C A138G | 0.74 |
| U14C U15C U26C G80A C99U U100C | 1.02 |
| U14C G82A U104A G106U | 1.62 |
| U13C U132C A138G | 1.3 |
| U14C U29C G32U A77C G83A | 0 |
| U13C U73G G97A | 0.12 |
| U14C C84A U96C G137A | 0.09 |
| U13C U108C U130C | 2.47 |
| U14C A31U U115C A136U | 1.79 |
| U14A U23C U46C A64U | 0.84 |
| U14C G60A U73A | 0.08 |

| Variant | self-cleavage |
| --- | --- |
| U14C A43G A92G | 0.48 |
| U14A A59G A67U U81A | 0.04 |
| U13C U87C U96A A136G | 0.3 |
| U13C U85C U119C | 0.33 |
| U14C A22G A50G A69G A121U | 0 |
| U14C G36A U143C | 1.3 |
| U14A A64C U112C | 0.16 |
| U14C A77G A141G | 2.45 |
| U14C U20C A22U A78G G114A | 1.23 |
| U14C U26C U46C A94G A136U | 0 |
| U14C A22C A57U U112C U119C | 1.15 |
| U14C U45A A124G A129G | 1.21 |
| U13C U87C U108A U130C U132C | 0 |
| U14A G35U U45A A69G | 0.64 |
| U14C A57U A92G U119C G135A A138G | 0.33 |
| U14C G21A C63A A142G | 0.07 |
| U14C A22G U100C U104G | 2.01 |
| U14C A65G U102C U119C | 0 |
| U13C U132C A142G | 1.49 |
| U14C A69G U96C A141G | 0 |
| U14C U23C A64G | 0.69 |
